Hit rate of the full screen: of about 46,000 compounds, about 60 (0.1%) were called active. Inconclusive results (about 3%) are left out. Calls come from the whole dose curve; as a rule, active = well fitted inhibition curve with a large enough effect; inconclusive = small, poorly fitted or top-dose-only effect; inactive = no such curve, though single readings can be large or run the other way. This is one part of the list.
Test: Primary qHTS assay for Inhibitors of ovarian cancer metastasis using an organotypic tumor microenvironment (TME) model.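 For activity change, negative = inhibition: plate controls were DMSO wells for no effect and tomatine positive control wells for full effect.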 Note: nearly all actives have a fitted effect of over 65% in size.
Settings: SKOV3ip1-GFP adhesion/invasion on 3D omental model, fluorescence; series mostly up to 45.8 µM; activity change, negative = inhibition: at the top concentration
Summary of the method: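 Primary human omental fibroblast/mesothelial 3D culture pre-formed 48 h. SKOV3ip1-GFP cells added with compounds (0.36-46 umol/L), incubated 2 h RT/16 h 37 C, fixed; GFP cells quantified at 488/509 nm.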

| Compound | activity change, negative = inhibition | outcome |
| --- | --- | --- |
| Cc1ccc(S(=O)(=O)NCCc2nnc3ccc(SCC(=O)Nc4c(C)cc(C)cc4C)nn23)cc1 | inactive: 5.64% |  |
| Cc1ccc(NC(=O)Cn2nc(C(F)(F)F)c3c2CCCC3)cc1 | inactive: 7.2% |  |
| CC(C)(C)C1CCc2c(sc3nc(-c4cc5cc(Cl)ccc5oc4=O)[nH]c(=O)c23)C1 (centres undefined) |  | inactive |
| CCN(CC)c1ccc(NC(=O)C2CCN(S(=O)(=O)c3c(C)noc3/C=C/c3ccccc3F)CC2)c(C)c1 |  | inactive |
| Cc1ccc(CC(=O)NCc2nc(-c3ccccc3)no2)cc1 |  | inactive |
| O=C(NCCc1ccccc1Cl)c1cc2ccccn2n1 |  | inactive |
| COc1ccccc1NC(=O)c1cc2cc3ccc(OC)c(Cl)c3nc2s1 | inactive: -6.04% |  |
| CCOC(=O)c1ccc(NC(=O)c2nc(SCc3ccc(F)cc3)ncc2Cl)cc1 |  | inactive |
| COC(=O)c1c(NC(=O)c2cc(=O)c3cc(C)cc(C)c3o2)sc2c1CCC2 | inactive: 5.47% |  |
| COc1ccc2ncc3c(-c4ccc(C)c(C)c4)nn(CC(=O)Nc4ccccc4)c3c2c1 | inactive: -6.09% |  |
| Cc1cc(SCC(=O)Nc2ccc(F)cc2F)nc(=O)[nH]1 |  | inactive |
| CCCCn1c(=O)c2oc3ccccc3c2n(Cc2ccc(C)cc2)c1=O |  | inactive |
| COc1ccc(NC(=O)Cn2c(=O)n(-c3ccc(OC)cc3)c(=O)c3sc4ccccc4c32)cc1 | inactive: 39.7% |  |
| COc1ccc2c(CNCc3ccco3)c(C(=O)O)n(Cc3cccc(F)c3)c2c1 | inactive: 0.498% |  |
| COc1cccc(C(=O)Nc2nc(-c3nnn(-c4cccc(Cl)c4C)c3C)ns2)c1 | inactive: -16.9% |  |
| COc1ccc(CNc2ncnc3c2c(-c2ccccc2)cn3-c2ccc(C)c(Cl)c2)cc1 |  | inactive |
| O=C(Cn1cc(S(=O)(=O)Cc2ccccc2F)c2ccccc21)Nc1ccc(F)c(Cl)c1 | inactive: -25.8% |  |
| COc1cc(C(=O)Nc2cc(C)c(O)c(-c3nc4ccccc4s3)c2)cc(OC)c1OC |  | inactive |
| COc1ccc(C(=O)Nc2ccc(-c3nc4ccccc4s3)c(Cl)c2)cc1Cl |  | inactive |
| Cn1c(NCCCO)nc2c1c(=O)n(Cc1cccc(F)c1)c(=O)n2C |  | inactive |
| CCCN(CCC)C(=O)C1CCN(c2cc(C)nc3c(-c4ccc(Cl)cc4)c(C)nn23)CC1 |  | inactive |
| Cc1ccc(-c2c(C(=O)Nc3ccccc3F)oc(=O)c3ccccc23)cc1 | inactive: 3.06% |  |
| Cc1ccc(C)c(NC(=O)c2oc(=O)c3ccccc3c2-c2ccccc2)c1 |  | inactive |
| O=C(Nc1cccc(C(F)(F)F)c1)Nc1cc(S(=O)(=O)NC2CC2)ccc1-c1ccsc1 | inactive: -14.6% |  |
| CCCc1nn2c(=O)cc(COC(=O)c3ccc4c(c3)OCO4)nc2s1 | inactive: 7.39% |  |

| Compound | activity change, negative = inhibition | outcome |
| --- | --- | --- |
| Cc1cc2nc(-c3ccc(OCc4ccccc4F)cc3)cc(C(F)(F)F)n2n1 |  | inactive |
| Cn1c(NCCN)nc2c1c(=O)n(Cc1ccccc1)c(=O)n2C | inactive: -0.772% |  |
| CCOC(=O)c1cccc(NC(=O)C2=C(C)C(=O)OC23CCCCC3)c1 | inactive: 2.49% |  |
| Cc1ccc(C)c(Cn2c(SCC(=O)NCc3ccccc3)nc3ccccc32)c1 | inactive: -0.75% |  |
| CCCn1c(=N)c(C(=O)NC2CCCCC2)cc2c(=O)n3cc(C)ccc3nc21 | inactive: -1.41% |  |
| CC(C)COc1ccc(C(=O)N(Cc2cccc(F)c2)C2CCS(=O)(=O)C2)cc1 (centres undefined) | inactive: 5.46% |  |
| CCOc1ccc(S(=O)(=O)NCc2cccn2Cc2cccc(C)c2)cc1 | inactive: -11.5% |  |
| CCOC(=O)c1cnc2ccc(OCC)cc2c1NCCc1ccc(OC)c(OC)c1 | inactive: 8.55% |  |
| CCOC(=O)c1cc(-c2ccccc2)n(-c2cccc(C(=O)NC(C)(C)C)c2)c1C | inactive: 3.68% |  |
| Cc1ccc(NS(=O)(=O)c2c(C)nc3sc(C)c(C)n3c2=O)cc1F |  | inactive |
| Cc1ccc(C)c(N2CCN(C(c3ccccc3)c3nnc(-c4ccccc4)o3)CC2)c1 (centres undefined) | inactive: 5.16% |  |
| CCCn1c2ccccc2c2cnn(CC(=O)NCCCOC(C)C)c(=O)c21 | inactive: 14.7% |  |
| CCN1CCc2c(sc(-n3cccc3)c2C(CCC(C)C)NC(=O)NCCC(=O)OC)C1 (centres undefined) |  | inactive |
| CCc1cccc(C)c1NC(=O)C(NS(=O)(=O)c1ccc2c(c1)CCC(=O)N2)c1ccccc1 (centres undefined) |  | inactive |
| Cc1cccc(NC(=O)c2cc3c([nH]c2=O)CC(c2ccccc2)CC3=O)c1 (centres undefined) | inactive: -5.26% |  |
| COc1ccc(CCNC(=O)Cc2ccc(NC(=O)N3CCSc4ncccc43)cc2)cc1OC | inactive: 8.14% |  |
| COc1cccc(-c2nc(CS(=O)(=O)CC(=O)Nc3ccc(C)c(Cl)c3)c(C)o2)c1 | inactive: -7.29% |  |
| COc1ccc(C(=O)N2CCN(c3nc4c(OC)cccc4s3)CC2)cc1OC | inactive: -20.2% |  |
| COc1cccc(CNC(=O)Cn2cccc2C(=O)c2ccccc2)c1 | inactive: -9.1% |  |
| COC(=O)CCNC(=O)N1CCN(c2nnc(C)c3c(C)n(-c4ccccc4)nc23)CC1 |  | inactive |
| COc1cc(C(=O)NCc2nc(-c3ccc(Cl)cc3)no2)cc(OC)c1OC | inactive: 1.83% |  |
| O=C(Cn1c(=O)n(Cc2ccc(F)cc2)c(=O)c2sc3ccccc3c21)Nc1ccc(F)cc1F |  | inactive |
| CCc1ccc(CNC(=O)C2COc3ccccc3C2)cc1 (centres undefined) | inactive: -10.8% |  |
| Cc1cccc(CN2C(=O)c3ccccc3S(=O)(=O)c3ccc(C(=O)OCC4CCCO4)cc32)c1 (centres undefined) | inactive: 29.3% |  |
